Laboratory results as given in US20250171404A1, “PCNA INHIBITORS AND USES THEREOF” (CITY OF HOPE, priority 2022, published 2025).

Tested on: γH2A.X
Assay: γH2A.X Western blot (DNA damage marker)
Assay type: cell-based, human
Conditions: 500 nM AOH1996 or 30 μM R9-caPep

**Q.** With COc1cccc(Oc2ccccc2NC(=O)CNC(=O)c2cccc3ccccc23)c1 [AOH1996, N-(2-((2-(3-methoxyphenoxy)phenyl)amino)-2-oxoethyl)-1-naphthamide] as the compound, how does the “induction of γH2A.X in L47V PCNA mutant cell lines” value read?
**A.** confers resistance to induction of the DNA damage marker γH2A.X
